Results published in PubChem BioAssay AID720536 (National Center for Advancing Translational Sciences (NCATS), 2013).
“And” between values parts separate entries of the source, which are not always exact repeats. Identical values can stand only once. In all, about 1,600 compounds went through this assay and about 650 (41%) were called active. The set was probably picked from earlier hits. Inconclusive means that the source gave no clear call. Such entries were picked first, then a sample of the others. The call rests on the fitted dose curve; in most records, active means well fitted inhibition curve with a large enough effect; inconclusive means small, poorly fitted or top-dose-only effect; inactive means no such curve, though single readings can be large or run the other way. Where the call is inconclusive, the potency comes from a doubtful curve fit.

experiment: qHTS for Inhibitors of TGF-b: CCL64 Cells Orthogonal Assay for Cherry Picks; conditions: CCL64 CAGA-GFP reporter, TGF-b stimulated, GFP fluorescence, 18 h; activity, negative = inhibition: at 46.1 µM (top of the series); further: nearly all actives have a fitted effect of over 65% in size
Source text: TGF-b is a main component in the TGF-b signaling pathway which plays diverse roles in cellular and development pathways. TGF-b is the mediated by the transcription factors Smads. Although the Smad-dependent pathway is the primary canonical TGF-b signaling node, TGF-b1 can also activate alternative signaling pathways, including those involving MAPK (ERK, JNK and p38). This interaction may mediate or enhance Smad-dependent responses, or can exert Smad-independent effects. The complexity of this signaling cascade allows the TGF-b superfamily to perform unique, overlapping or redundant functions. We believe that targeting the TGF-beta pathway at the Smad-transcription factor level may eliminate the consequences of disrupting the entire pathway and offer specificity without affecting other signaling pathways. Smad3 is the primary transducer of TGF-b's signals and Smad3 regulates many functions attributed to TGF-b signaling. We hypothesize that Smad3 inhibitors will selectively eliminate Smad3-specific TGF-beta signals without undesired off-target effects. We aim to identify Smad3-small molecule antagonists using a quantitative high throughput screening (qHTS) approach. A high-throughput assay was developed to screen the NIH Molecular Libraries Small Molecule Repository (MLSMR). This is a cell based assay, where TGF-b is tagged with GFP. This orthogonal assay was run using CCL64 cells (as opposed to HepG2); activity was desired in this assay as this indicated the hits identified from the screen are not a cell-based artifact. MH087449NIH Chemical Genomics Center [NCGC] NIH Molecular Libraries Probe Centers Network [MLPCN] MLPCN Grant: MH087449 Assay Submitter (PI): Sushil Rane, National Institute of Diabetes and Kidney Diseases
Suspensions of trypsinized CCL64 CAGA-GFP cells were dispensed into white, tissue culture-treated, solid 1536-well plates at 5uL/well (1000 cells/well final concentration) in DMEM medium supplemented with 1% FBS. Plates were incubated at 37 degrees C for 2 hours, after which 23 nL of compounds or DMSO were delivered to each well using a pin tool. One uL of recombinant TGF-beta in DMEM (1% FBS) was then dispensed (500 pg/mL final concentration), and plates were incubated at 37 degrees C for 18 hours. The plates were measured on an Acumen eX3 Explorer plate reader for GFP fluorescence (ex488/em500-530). GFP values were calculated by determining the mean GFP fluorescence of individual cells, and compiling these values for each well to determine a total well GFP signal. The %Activity was determined from the corrected fluorescence values. A titration of the known TGF-B inhibitor SB431542 was included to monitor plate performance, while unstimulated […] (-TGF-B) control wells were used to normalize %Activity of identified inhibitors; unstimulated wells corresponded to 100%Activity (full inhibition), while stimulated cell controls (+DMSO) were used to normalize 0%Activity (no inhibition). Concentration-response curves were fitted to the signals arising from the resulting fluorescence. The concentration-effect curves were then classified based on curve quality (r2), response magnitude and degree of measured activity, and compounds were subsequently categorized based on their curve class.
Potency means the concentration at half of the fitted maximal effect; tags describe the fitted curve by direction and shape.

SMILES	Potency	activity, negative = inhibition
COc1ccc(-n2nnnc2C(CCc2ccccc2)N2CCC(n3c(=O)[nH]c4ccccc43)CC2)cc1 (stereo unspecified)	inconclusive: 20.6 µM [inhibitor, partial curve, poor fit]	
N#Cc1cn(C2OC(CO)C(O)C2O)c2ncnc(N)c12 (stereo unspecified)	active: 0.103 µM	
O=c1[nH]c2ccccc2n1C1CCN(C(c2cccs2)c2nnnn2-c2ccc3c(c2)OCCO3)CC1 (stereo unspecified)	inconclusive: 11.6 µM [inhibitor, partial curve, poor fit]	
COC(=O)C1=C(c2ccc(-c3ccccc3)c(F)c2)C[C@@H]2CC[C@H]1N2C(=O)NCc1ccco1	inconclusive: 20.6 µM [inhibitor, single point]	
CC1=C(N2CC2)C(=O)C(CO)=C(N2CC2)C1=O		inactive: -113%
Cc1nn(-c2nccs2)c2c1C(=O)CC(C)(C)C2Br (stereo unspecified)	inconclusive: 10.3 µM [inhibitor, partial curve, poor fit]	
CC(=NCCc1c[nH]c2ccccc12)c1c(O)n(Cc2ccccc2)c(=O)[nH]c1=O	inconclusive: 18.4 µM [inhibitor, single point]	
Oc1ccccc1-[n+]1c(-c2ccccc2)cc(-c2ccccc2)c(O)c1-c1ccccc1	active: 23.1 µM	
COC(=O)C1=C(c2ccc(F)cc2OCc2ccccc2)C[C@@H]2CC[C@H]1N2C(=O)NCc1ccccc1OC	inconclusive: 20.6 µM [inhibitor, single point]	
CSCCC(c1nnnn1C1CCCCC1)N1CCC(n2c(=O)[nH]c3ccccc32)CC1 (stereo unspecified)		inactive: -30.9%
COc1cc2cc(C(=O)N3CC(COS(C)(=O)=O)c4ccc(O)cc43)[nH]c2c(OC)c1OC (stereo unspecified)	active: 0.0058 µM	
S=C(NCCc1ccccc1)N1Cc2cc(N3CCCCC3)ccc2-n2nncc2C1		inactive: -29.9%
NC(=O)c1c(Br)n(C2OC(CO)C(O)C2O)c2ncnc(N)c12 (stereo unspecified)	inconclusive: 29.1 µM [inhibitor, partial curve, poor fit]	
COc1ccc2[nH]c3c(c2c1)CCN1C(=O)C(CC(=O)NCc2cccc(C(F)(F)F)c2)C[C@H](C(=O)N2CCCCC2)[C@@]31C (stereo partly specified)	active: 4.61 µM	
O=C(CCN1CC2CCC(CC2)C1)c1cccs1	active: 2.91 µM	
NC(=Nc1ccccc1)Nc1ccccc1	inconclusive: 29.1 µM [inhibitor, single point]	
Cc1[nH]nc2ccc(-c3cncc(OC[C@@H](N)Cc4c[nH]c5ccccc45)c3)cc12		inactive: -103%
Cc1[nH]c2ccc(OC(F)(F)F)cc2c1CCNCc1ccc(Cl)cc1	inconclusive: 18.4 µM [inhibitor, single point]	
Cc1c(C=O)c2ccccc2n1Cc1ccc(F)cc1		inactive: 10.1%

SMILES	Potency	activity, negative = inhibition
COc1ccc(-n2nnnc2C(c2ccccc2OC(F)(F)F)N2CCC(n3c(=O)[nH]c4ccccc43)CC2)cc1 (stereo unspecified)	inconclusive: 16.4 µM [inhibitor, single point]	
CC1=CC(C)CC(C)OC(=O)CC(c2ccc(O)cc2)NC(=O)C(Cc2c(Br)[nH]c3ccccc23)N(C)C(=O)C(C)NC(=O)C(C)C1 (stereo unspecified)	active: 0.259 µM	
C=C1C(O)[C@@H]2O[C@]3(CC[C@H](/C=C/C(C)[C@@H]4CC(C)=CC5(O[C@H](C[C@@](C)(O)C(=O)O)CCC5O)O4)O3)CC[C@H]2O[C@@H]1C(O)CC(C)[C@H]1OC2(CCCCO2)CCC1C (stereo partly specified)	active: 0.082 µM	
COC1CC(C)C(OC)c2cc(O)cc(c2O)NC(=O)C(C)=CC=CC(C)C(OC(N)=O)C(C)=CC(C)C1OC (stereo unspecified)	active: 4.11 µM	
COc1ccc(CC2NCC(O)C2OC(C)=O)cc1 (stereo unspecified)	active: 0.082 µM	
COc1ccc(-c2nn(-c3ccccc3)cc2C(=O)N2c3ccc(C)cc3C3CN(C)CCC32)cc1 (stereo unspecified)	inconclusive: 16.4 µM [inhibitor, single point]	
COc1ccc(CN2Cc3cc(-c4cccc(F)c4)ccc3-n3nncc3C2)cc1	inconclusive: 20.6 µM [inhibitor, single point]	
CC1=CC2OC3CC4OC(=O)C=CC=CC(C(C)O)OCC(O)C(C)CC(=O)OCC2(CC1O)C4(C)C31CO1 (stereo unspecified)	active: 0.0291 µM	
O=Cc1cn(Cc2ccccc2F)c2ccccc12		inactive: 0.0703%
CC[C@H]1CN2CCc3cc(OC)c(OC)cc3C2C[C@@H]1C[C@H]1NCCc2cc(OC)c(OC)cc21 (stereo partly specified)	active: 0.0731 µM	
Nc1nc(F)nc2c1ncn2[C@@H]1O[C@H](CO)[C@@H](O)[C@@H]1O		inactive: -33.2%
CCCc1nc2ccc(Br)cc2c(=O)n1-c1ccc([N+](=O)[O-])c(C(F)(F)F)c1	inconclusive: 13 µM [inhibitor, partial curve]	
Cc1ccc(-c2cc(-c3ccc(C)cc3)[n+](-c3ccccc3)c(-c3ccc(C)cc3)c2)cc1	active: 1.64 µM	
COc1ccc(-n2nnnc2C(c2ccccc2)N2CCC(n3c(=O)[nH]c4ccccc43)CC2)cc1 (stereo unspecified)	inconclusive: 29.1 µM [inhibitor, single point]	
CCC1C(c2cc(OC)c(OC)c(OC)c2)c2cc3c(cc2OC1N1CCCC1)OCO3 (stereo unspecified)	inconclusive: 29.1 µM [inhibitor, single point]	
O=c1[nH]c2ccccc2n1C1CCN(C(c2cccc3ccccc23)c2nnnn2Cc2ccccc2)CC1 (stereo unspecified)	inconclusive: 29.1 µM [inhibitor, single point]	
O=C(c1cn(Cc2ccccc2F)c2ncccc12)C(F)(F)F		inactive: -0.43%
O=C(Nc1ccc(Cl)cc1)Nc1ccc(Cl)c(Cl)c1	active: 5.17 µM	
Nc1c2c(nc3sc4c(c13)CCCCC4)CCCC2	inconclusive: 18.4 µM [inhibitor, single point]	

SMILES	Potency	activity, negative = inhibition
CC1CCC/C=C/C2CC(O)CC2C(O)/C=C/C(=O)O1 (stereo unspecified)	inconclusive: 29.1 µM [inhibitor, single point]	
CCCCn1nnnc1C(c1cccc2ccccc12)N1CCC2(CC1)C(=O)NCN2c1ccccc1 (stereo unspecified)	inconclusive: 23.1 µM [inhibitor, single point]	
Cc1cccc(C)c1-n1nnnc1C(c1cc2ccccc2o1)N1CCC(n2c(=O)[nH]c3ccccc32)CC1 (stereo unspecified)	active: 5.8 µM	
CC(=O)c1cn(Cc2ccc(F)cc2)c2ccccc12		inactive: 3.18%
COc1ccc(C[C@H]2NC[C@H](O)[C@H]2OC(C)=O)cc1	active: 0.103 µM	
CCCCn1c(N)c(C(=O)NCc2cccs2)c2nc3ccccc3nc21	inconclusive: 29.1 µM [inhibitor, single point]	
CCOC(=O)c1c(N)n(CCCOC(=O)c2ccco2)c2nc3ccccc3nc12	active: 23.1 µM	
O=[N+]([O-])c1oc2ccc3ccccc3c2c1CCO	inconclusive: 32.6 µM [inhibitor, partial curve, poor fit]	
COC(=O)C1=C(c2ccc3ccccc3c2)C[C@@H]2CC[C@H]1N2C(=O)N1CCOCC1		inactive: 5.48%
COC(=O)C1=C(c2ccc(-c3ccccc3)c(F)c2)C[C@@H]2CC[C@H]1N2C(=O)NCc1cc(C)oc1C(F)(F)F	inconclusive: 5.8 µM [inhibitor, full curve]	
COC(=O)C1=C(c2ccc(OC(F)(F)F)cc2)C[C@@H]2CC[C@H]1N2C(=O)N1CCC(C)CC1	inconclusive: 16.4 µM [inhibitor, single point]	
C=C(C)[C@@]12OC3(c4ccccc4)O[C@@H]1C1[C@@H]4O[C@]4(CO)[C@@H](O)[C@]4(O)C(=O)C(C)=C[C@H]4[C@@]1(O3)[C@H](C)[C@H]2OC(=O)/C=C/C=C/c1ccccc1 (stereo partly specified)	inconclusive: 0.0651 µM [inhibitor, partial curve, poor fit]	
CC(C)c1ccc(N2C(=O)NC(=O)/C(=C\C=C\c3ccco3)C2=O)cc1	active: 5.8 µM	
Fc1cccc(-c2ccc3c(c2)CN(C(=S)NCCc2ccccc2)Cc2cnnn2-3)c1		inconclusive: -30.9% [inhibitor]
O=Cc1cn(Cc2ccc(F)cc2Cl)c2ccccc12		inactive: 1.08%
C[C@H]1CCC/C=C/[C@@H]2C[C@H](O)C[C@H]2[C@@H](O)/C=C/C(=O)O1	inconclusive: 20.6 µM [inhibitor, partial curve]	
C[C@H]1CCC/C=C/[C@@H]2C[C@H](O)C[C@H]2[C@H](O)/C=C/C(=O)O1	inconclusive: 16.4 µM [inhibitor, partial curve, poor fit] and inconclusive: 11.6 µM [inhibitor, partial curve]	
CCOC(=O)c1c(C)n(Cc2ccccc2)c2ccc(OCC(O)Cn3nc(C)cc3C)cc12 (stereo unspecified)	active: 14.6 µM	
